Drawing on PubChem BioAssay AID463173 (ICCB-Longwood Screening Facility, Harvard Medical School, 2010), this text covers survival for 87 compounds.

Each structure is given as a SMILES string. The whole screen tested about 52,000 compounds, of which about 1,700 (3.3%) were called active. Cut-off read from the data, not from the text of the source: active = survival mostly below about 52% (no sharp cut-off); inactive = mostly above about 56%. Some of the results follow.

The subject of the assay is Wild type. Nature of the assay: growth inhibition of S. aureus wild type versus tarO mutant, primary screen, teichoic acid synthesis inhibitors, RN4220, OD600 (AID 463173). The note with it: S. aureus RN4220 wild type/DeltatarO growth, OD600, 18 h, stronger effect = lower value, screened at 18.75 µg/mL (by protocol).
As to `Cc1cn2c(=O)cc(COC(=O)c3ccc(NC(=O)COc4ccccc4F)cc3)nc2s1`, the survival was inactive: 85%.
To `CCOc1ccccc1OCCCn1c(-c2ccc(Cl)cc2)nc2ccccc2c1=O` belongs inactive: 46%.
The figure for `Cc1cc(C)cc(-n2c(-c3ccccc3)c(C)n3c4c(=O)n(C)c(=O)n(C)c4nc23)c1` is inactive: 79%; for `COc1ccc(CN(C(=O)CSc2nnc(-c3ccc(OC)c(OC)c3)o2)c2ccc(F)cc2)cc1` it is inactive: 99%.
With `Nc1nn(-c2ccccc2)nc1NC=O`, the survival is inactive: 106%.
Turning to `CCOc1ccc(CCNC(=O)Cn2nc(CC)n3c(cc4ccccc43)c2=O)cc1`, the survival was inactive: 81%.
Turning to `Cc1ccc(S(=O)(=O)N(C)c2c(C)ccc(S(=O)(=O)n3nc(C)cc3C)c2C)cc1`, the survival is inactive: 120%.
The figure for `COc1ccc(-c2c3c(=O)n(C)c(=O)n(C)c3c3n2-c2ccccc2NC3c2ccco2)cc1` (configuration not stated) is inactive: 57%; for `Cc1cc(=O)n(CC(=O)N2CCN(c3ccccc3F)CC2)c2c1c(C)nn2C` it is inactive: 66%.
To `CCc1ccccc1NC(=O)c1cnc(N2CCCCC2)c2ccccc12` belongs inactive: 72%; to `COc1cc(C(=O)NCC(c2cccs2)S(=O)(=O)c2cccs2)cc(OC)c1OC` (configuration not stated), inactive: 67%; to `CCOC(=O)c1[nH]c(C)c(CCC(=O)Nc2cc(C)ccc2OC)c1C`, inactive: 82%.
Turning to `CCC(Sc1nc(-c2ccccc2F)nc2c1Cc1c(CO)cnc(C)c1O2)C(=O)Nc1cc(C)ccc1C` (configuration not stated), the survival is inactive: 87%.
To `CCOc1ccc(CCNC(=O)C2=C(C)C(=O)OC23CCCCC3)cc1` belongs inactive: 76%; to `CCN1C(=O)c2ccccc2S(=O)c2ccc(C(=O)N3CCN(c4cc(Cl)ccc4C)CC3)cc21` (configuration not stated), inactive: 89%; to `Cc1ccccc1CN1CCC(CNC(=O)c2c(C)oc3ncnc(N4CCCCC4)c23)CC1`, inactive: 72%.
The figure for `CN(Cc1ccccc1)C(=O)c1ccc2c(c1)N(Cc1ccccc1Cl)C(=O)c1ccccc1S2` is inactive: 80%; for `Fc1ccc(-c2noc3ncnc(NCc4ccc(Cl)cc4)c23)cc1` it is inactive: 66%.
As for `O=C(CCn1c(=O)c2cccn2c2cccnc21)NCc1ccc(F)cc1`, the survival is inactive: 87%.
Regarding `COc1cc(C2CC(=O)Oc3c2c(=O)n(C)c2ccccc32)ccc1O` (configuration not stated), the survival was inactive: 64%.
The figure for `COc1ccc(C(=O)NC2(C(F)(F)F)C(=O)Nc3c2c(=O)[nH]c(=O)n3CCc2ccc(OC)c(OC)c2)cc1` (configuration not stated) is inactive: 75%; for `CCOC(=O)c1c(C)[nH]c(C)c1S(=O)(=O)N(C)CC(=O)Nc1ccc(C)cc1C` it is inactive: 78%; for `CCCc1nnc(SCC(=O)N2CCCC2)n1CCOC` it is inactive: 111%.
The figure for `O=C(COc1ccccc1)Nc1ccc2nc(SCCOc3ccccc3)sc2c1` is inactive: 94%.
Turning to `Cc1ccc(Cl)cc1N1CCN(C(=O)c2ccc(CS(=O)(=O)c3ccccc3C)o2)CC1`, the survival was inactive: 60%.
Consider `CC1=C(C(=O)OCC2CCCO2)C(c2ccccc2)NC(=O)N1` (configuration not stated), for which the survival is inactive: 116%.
For the compound `Cc1ccc(NC(=O)Cn2c(=O)n(CC3CCCO3)c(=O)c3ccccc32)cc1` (configuration not stated), the survival was inactive: 84%.
The figure for `Cc1cc(C)c2oc(-c3cccc(NC(=O)COc4ccc([N+](=O)[O-])cc4)c3)nc2c1` is inactive: 102%; for `COc1cc(C2NC(=O)c3c(sc4c3CCN(C)C4)N2)cc(OC)c1OC` (configuration not stated) it is inactive: 75%; for `CCOc1cc2[nH]c(=O)n(Cc3ccc(C(=O)N4CCN(c5cccc(Cl)c5)CC4)cc3)c(=O)c2cc1OCC` it is inactive: 74%.
Regarding `Cn1nc(C(=O)Nc2ccc(F)c(Cl)c2)c2c1-c1ccccc1S(=O)(=O)C2`, the survival is inactive: 93%.
On to `Cc1cccc(-c2nnc(C3CCN(S(=O)(=O)c4cccc(Cl)c4)CC3)o2)c1`, for which the survival was inactive: 79%.
To `CCc1ccc(CNC(=O)C2CCN(c3nn4cc(-c5ccc(F)cc5)nc4s3)CC2)cc1` belongs inactive: 70%; to `O=C(Cn1c(=O)nc(-c2ccccc2)c2cc(Cl)ccc21)N1CCN(c2ccc(F)cc2)CC1`, inactive: 78%.
As to `COc1ccc(Br)cc1CN1C(=O)c2ccccc2C1C(=O)NC1CCCCCC1` (configuration not stated), the survival was inactive: 86%.
The figure for `CCOC(=O)c1c(C)c(-c2ccccc2)n(CC(=O)NC2CCCCC2)c1C` is inactive: 128%; for `COc1cc(OC)c(OC)cc1CN1CCN(S(=O)(=O)c2ccc(NC(C)=O)cc2)CC1` it is inactive: 106%; for `Cc1cccc(CNC(=O)CS(=O)(=O)c2cccc3nsnc23)c1` it is inactive: 85%.
As to `COc1cc(NC(=O)Cn2cnc(S(=O)(=O)N3CCCC3)c2)cc(OC)c1OC`, the survival was inactive: 68%.
For `COc1ccc(Cl)cc1NC(=O)c1nn(-c2ccc(C)cc2)c(=O)n(C)c1=O`, the survival is inactive: 69%.
The figure for `CCOC(=O)c1c(C)[nH]c(C)c1S(=O)(=O)N1CCCC(C(=O)N2CCN(c3cccc(C)c3C)CC2)C1` (configuration not stated) is inactive: 124%; for `COCCNC(=O)c1cnc2sc(N3CCC(C)CC3)nn2c1=O` it is inactive: 88%; for `CCN(C(=O)c1cnc2ccc(C)cn2c1=O)c1ccccc1` it is inactive: 93%.
To `CCOC(=O)C1CCN(C(c2cccc(F)c2)c2c(O)cc(C)n(CCOC)c2=O)CC1` (configuration not stated) belongs inactive: 131%; to `Clc1ccc(-c2noc3ncnc(NCCc4ccccc4)c23)cc1`, inactive: 70%.
As to `CCc1ccc(NC(=O)C2CCN(c3nn4c(=O)cc(C)nc4s3)CC2)cc1`, the survival is inactive: 95%.
To `CCC(=O)Nc1nnc(C(C)(C)C)s1` belongs inactive: 105%; to `O=C(Nc1ccc2c(c1)CCCN2C(=O)c1cccs1)c1ccccc1Cl`, inactive: 82%.
To `CCCCn1cc2c(c1-c1ccc(Cl)cc1)c(=O)n(C)c(=O)n2C` belongs inactive: 83%.
To `COc1cc(OC)c(Nc2nc3ccc(C(=O)c4ccccc4)cc3n3c(C)nnc23)cc1Cl` belongs inactive: 93%; to `O=C(Nc1ccc(OC(F)(F)F)cc1)c1cc2ccccn2n1`, inactive: 83%; to `O=c1nc2n(-c3ccccc3F)c3ccccc3cc-2c(=O)[nH]1`, inactive: 58%.
Turning to `Cc1cc(C)cc(NS(=O)(=O)c2cc3c(cc2C)NC(=O)CO3)c1`, the survival was inactive: 78%.
For `COc1ccc(Cl)cc1NC(=O)c1sc2nc3n(c(=O)c2c1C)CCC3`, the survival was inactive: 88%.
The figure for `COc1ccc(NC(=O)CSc2nnc(-c3nonc3NC(C)=O)n2-c2ccccc2)cc1` is inactive: 79%; for `CCOC(=O)c1c(NC(=O)c2ccc(S(=O)(=O)N(CC(C)C)CC(C)C)cc2)sc2c1CCN(C(=O)OCC)C2` it is inactive: 146%.
`CCC(=O)N(CCC(c1ccccc1)c1ccc2c(c1)OCO2)Cc1ccc(OC(C)C)cc1` (configuration not stated): the survival is active: 1%.
On to `CCOc1ccc(CCNS(=O)(=O)c2cc(Br)cc3c2N(C(C)=O)CC3)cc1OCC`, for which the survival was inactive: 101%.
Turning to `Cc1cc(C)n(-c2nc3ccccc3nc2Nc2cccc(C)c2C)n1`, the survival is active: 7%.
The figure for `CCC(Sc1nc2ccccc2c(=O)n1CCc1ccc(OC)c(OC)c1)C(=O)N(CC)CC` (configuration not stated) is inactive: 135%.
The figure for `CCCN(C(=O)Cn1cnc2onc(-c3ccc(F)cc3)c2c1=O)c1cccc(Cl)c1` is inactive: 127%; for `CCN(CC)C(=O)Cn1c(=O)n(Cc2ccc(C(=O)NCCc3ccc(OC)c(OC)c3)cc2)c(=O)c2ccccc21` it is inactive: 93%.
In the case of `COC(=O)c1c(NC(=O)CCCOc2cccc(C)c2)sc2c1C(C(=O)OC)CC2` (configuration not stated), the survival was active: -3%.
In the case of `CCc1ccc(CN(Cc2cn[nH]c2-c2ccc(OC)cc2)C(=O)Nc2cc(Cl)ccc2OC)cc1`, the survival is inactive: 75%.
The figure for `CC(=O)c1ccc(N2C(=O)N(CC(=O)c3ccc(F)cc3)c3ccccc3S2(=O)=O)cc1` is inactive: 135%.
As to `Cc1ccc(-n2ncc3c(NC4CCCCCC4)ncnc32)cc1Cl`, the survival was inactive: 87%.
On to `Cc1ccc(-n2ncc(C(=O)NCc3ccco3)c2C2CCN(C(=O)OC(C)(C)C)CC2)c(C)c1`, for which the survival is inactive: 19%.
To `Cc1occc1-c1nnc(SCC(=O)N2CCCC(C)C2)n1CC1CCCO1` (configuration not stated) belongs inactive: 109%; to `COc1ccc(S(=O)(=O)NCCc2csc(-c3ccc(F)cc3)n2)cc1F`, inactive: 81%; to `CCCCN(CCCNC(=O)c1cc(Nc2ccc(OC)c(OC)c2)nc2ccccc12)Cc1ccccc1`, inactive: 79%.
Consider `CCN(CC)C(=O)CSc1nc(C)cc(=O)[nH]1`, for which the survival is inactive: 101%.
`CCOC(=O)C1=C(C)N=C2SCCC(=O)N2C1c1ccc(OCc2ccccc2)cc1` (configuration not stated): the survival was inactive: 121%.
As to `Cc1nonc1NC(=O)CNC1CCCCC1`, the survival was inactive: 111%.
For `O=C(CSc1nnc(-c2cccs2)o1)N1c2ccccc2CCc2ccccc21`, the survival was inactive: 98%.
As to `Cc1sc2ncn(CC(=O)N(C)c3ccc(Br)cc3)c(=O)c2c1S(=O)(=O)N1CCC(C)CC1`, the survival is inactive: 86%.
In the case of `Cc1nc2c(C(=O)NCc3ccccc3)c[nH]n2c(=O)c1Cc1ccccc1Cl`, the survival is inactive: 22%.
To `CC(=O)N1CCc2cc(S(=O)(=O)CCC(=O)N3CCN(c4cccc(C)c4C)CC3)ccc21` belongs inactive: 88%; to `Cc1cccc(NC(=O)c2c(C)oc3ncn(CC(C)C)c(=O)c23)n1`, inactive: 71%.
The figure for `Cc1nnc(SCC(=O)N(C(C)C)C(C)C)[nH]c1=O` is inactive: 102%; for `O=C(NCCc1ccccc1)c1cc(-c2ccc(Cl)cc2)on1` it is inactive: 101%; for `COc1cccc(NC(=O)Nc2cccc(-c3cn4cccnc4n3)c2)c1` it is inactive: 90%.
To `COc1ccc(NC(=O)c2noc3c2CCCC3)cc1Cl` belongs inactive: 82%; to `Cc1cc(C)c(NC(=O)CSc2nc(=O)[nH]c3c2CCCC3)c(C)c1`, inactive: 92%.
In the case of `CC(C)(C)c1ccc(OCC(=O)N2CCC(c3nc4ccccc4s3)CC2)cc1`, the survival was inactive: 85%.
The figure for `CCCOC1(C(F)(F)F)NC(=O)N(c2ccc(Cl)cc2)C1=O` (configuration not stated) is inactive: 90%.
The figure for `CCOc1ccc(-c2nnc(Nc3ccc(S(N)(=O)=O)cc3)c3ccccc23)cc1` is inactive: 88%.
Regarding `Cc1oc2c(c(C)cc3oc(=O)c(CC(=O)NCCc4ccccc4)c(C)c32)c1C`, the survival was inactive: 112%.
